Data as given in the supplement of paper PMC7826260.
Some of the results follow. Viral Rep nickase domains cut single-stranded DNA in vitro (1 h at 37 °C, 3 µM enzyme); the outer parts of the 90-letter strands are left off. Uncut reads are compared with the no-enzyme pool on a log2 scale; uncut sequences lie near 0, cut ones below; no hit call is given. Because reads are shares of a total, they shift together; where an enzyme cuts many sequences, the uncut ones exceed 0.

Experiments:
Test in all cases: uncleaved DNA left, log2 of reads against the no-enzyme library (log2 ratio); higher = less cleavage (more negative = more Rep cleavage of the k-mer); sequences stand for … in CTCGTCCG…ACCGGAGA
[1] = tested on: T1, Rep nickase domain of Muscovy duck circovirus
T1 sequence (residues 1-111, tag not shown): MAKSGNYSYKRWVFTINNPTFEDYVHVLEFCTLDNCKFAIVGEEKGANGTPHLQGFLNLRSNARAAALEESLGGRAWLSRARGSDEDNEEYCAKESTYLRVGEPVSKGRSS
Experimental: (§1)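 A pool of 90-nt single-stranded DNAs with seven random bases just before the constant AC of the nick site (name = the seven bases) was cut by 3 µM recombinant His6-SUMO-tagged Rep nickase domain (300 nM DNA, 50 mM HEPES pH 8.0, 50 mM NaCl, 1 mM MnCl2, 1 h, 37 °C, three replicates). Uncut DNA was amplified and sequenced.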

[2] = tested on: T2, Rep nickase domain of banana bunchy top virus
T2 sequence (residues 1-94, tag not shown): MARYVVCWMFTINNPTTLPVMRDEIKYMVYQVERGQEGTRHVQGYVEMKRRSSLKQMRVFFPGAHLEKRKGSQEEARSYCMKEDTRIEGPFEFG
Experimental: as §1

[3] = tested on: T3, Rep nickase domain of cabbage leaf curl virus
T3 sequence (residues 1-116, tag not shown): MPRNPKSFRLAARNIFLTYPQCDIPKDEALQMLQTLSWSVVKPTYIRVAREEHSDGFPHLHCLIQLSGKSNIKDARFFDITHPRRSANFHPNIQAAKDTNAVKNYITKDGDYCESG
Experimental: as §1

[4] = tested on: T4, Rep nickase domain of chickpea chlorotic dwarf virus
T4 sequence (residues 1-124, tag not shown): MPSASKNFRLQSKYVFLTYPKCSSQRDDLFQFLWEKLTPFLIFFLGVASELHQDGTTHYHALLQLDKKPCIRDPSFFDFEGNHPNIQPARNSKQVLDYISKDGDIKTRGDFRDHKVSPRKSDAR
Experimental: as §1

[5] = tested on: T5, Rep nickase domain of faba bean necrotic yellows virus
T5 sequence (residues 1-98, tag not shown): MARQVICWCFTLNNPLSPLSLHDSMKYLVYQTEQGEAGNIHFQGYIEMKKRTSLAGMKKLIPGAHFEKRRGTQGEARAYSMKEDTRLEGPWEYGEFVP
Experimental: as §1

[6] = tested on: T6, Rep nickase domain of maize striate mosaic virus
T6 sequence (residues 1-117, tag not shown): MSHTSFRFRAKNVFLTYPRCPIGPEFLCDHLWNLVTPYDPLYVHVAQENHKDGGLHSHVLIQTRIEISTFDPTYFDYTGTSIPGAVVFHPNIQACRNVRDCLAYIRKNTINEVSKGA
Experimental: as §1

[7] = tested on: T7, Rep nickase domain of porcine circovirus 2
T7 sequence (residues 2-116, tag not shown): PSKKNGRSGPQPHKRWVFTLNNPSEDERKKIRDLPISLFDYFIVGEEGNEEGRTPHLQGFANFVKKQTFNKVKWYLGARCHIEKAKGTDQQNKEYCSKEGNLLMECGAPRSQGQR
Experimental: as §1

[8] = tested on: T8, Rep nickase domain of tomato yellow leaf curl virus
T8 sequence (residues 1-136, tag not shown): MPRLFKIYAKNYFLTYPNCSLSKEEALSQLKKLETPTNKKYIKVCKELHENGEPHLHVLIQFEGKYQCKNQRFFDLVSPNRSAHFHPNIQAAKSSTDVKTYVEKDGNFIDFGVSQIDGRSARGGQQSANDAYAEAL
Experimental: as §1

[9] = tested on: T9, Rep nickase domain of wheat dwarf virus
T9 sequence (residues 1-137, tag not shown): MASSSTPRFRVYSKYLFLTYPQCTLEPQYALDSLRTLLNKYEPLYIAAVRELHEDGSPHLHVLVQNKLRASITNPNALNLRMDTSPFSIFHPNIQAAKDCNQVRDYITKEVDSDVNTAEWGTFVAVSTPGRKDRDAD
Experimental: as §1

Sequence	uncleaved DNA left (log2) [1]	uncleaved DNA left (log2) [2]	uncleaved DNA left (log2) [3]	uncleaved DNA left (log2) [4]	uncleaved DNA left (log2) [5]	uncleaved DNA left (log2) [6]	uncleaved DNA left (log2) [7]	uncleaved DNA left (log2) [8]	uncleaved DNA left (log2) [9]
GTGTAAA	0.0111	0.127	0.328	1	0.118	1.88	0.158	0.106	0.125
CGCTACC	-0.0884	-0.0625	-0.123	-1.57	-0.154	-0.291	-0.524	-0.136	-0.154
GGCATGG	0.00135	0.0968	0.24	0.8	-0.0587	0.91	0.157	0.0671	0.0152
GTGAGAA	0.0769	0.129	0.499	1.15	0.0247	1.66	0.116	0.196	0.188
AGGCCTT	-0.032	0.0863	0.792	1.34	-0.0438	1.97	-0.0124	0.0299	0.123
TAGAGTC	-0.0226	-0.0774	0.0158	-0.291	-0.0162	-0.63	-0.295	-0.0295	-0.163
GGCGCCA	0.0833	-0.00406	0.298	0.823	0.00286	1.53	-0.0416	-0.032	0.117
CAGAGTG	0.0511	0.0353	-0.422	-0.308	0.061	-0.662	0.127	-0.0161	0.00576
TTATGTG	-0.0831	-0.118	-0.851	-0.486	0.0124	-1.23	0.072	-0.067	-0.181
TACTTGT	-2.12	-0.606	-0.246	-0.668	-0.0552	0.337	-3.54	-0.112	-0.116
CACGTCA	0.0824	0.0991	-0.0938	-1.69	0.0591	-0.534	-0.0151	0.0762	0.0385
AACAGGT	-0.00903	0.0683	0.325	1.04	0.0716	1.27	0.0464	-0.0179	0.000686
GGTGAAG	-0.0338	0.066	0.0144	0.41	-0.0466	0.0937	0.0888	0.0568	-0.023
GGGCGCT	-0.0125	0.0561	0.684	1.6	-0.0975	2.07	0.00476	-0.016	0.129
TTTGTTT	-0.00769	-0.147	0.0211	-1.92	-0.0107	-0.413	-0.408	-0.063	-0.0897
ACTAACC	0.0232	0.0979	-0.286	-0.503	0.039	-0.374	-0.126	-0.0188	0.0155
AGAATAG	0.0115	0.0375	-0.783	-0.487	-0.0291	-1.27	0.161	-0.032	-0.0925
TTTGAGC	0.0375	-0.0275	-0.322	-0.742	0.00345	-1.15	0.00176	-0.00564	-0.146
GGGTCAG	-0.0251	0.106	0.929	2.03	-0.11	2.21	0.136	-0.0226	0.131
TATTAGC	0.109	-0.000729	-0.46	-0.81	0.0188	-1.15	0.13	0.176	0.0884

Sequence	uncleaved DNA left (log2) [1]	uncleaved DNA left (log2) [2]	uncleaved DNA left (log2) [3]	uncleaved DNA left (log2) [4]	uncleaved DNA left (log2) [5]	uncleaved DNA left (log2) [6]	uncleaved DNA left (log2) [7]	uncleaved DNA left (log2) [8]	uncleaved DNA left (log2) [9]
CTCACGC	0.0605	-0.087	-0.0114	-0.407	-0.0362	-0.666	0.11	-0.0114	-0.0603
GCACCAT	-0.00148	-0.0565	0.189	0.411	-0.0431	0.51	-0.0306	-0.144	0.0387
TTAACGA	0.151	0.0981	-0.35	-0.679	0.141	-0.691	0.208	0.152	0.0411
GCGTTAC	0.0498	0.0599	0.141	-0.298	0.0975	0.175	0.0683	0.0988	0.12
TAAGGGA	0.0779	0.102	0.28	0.83	0.058	0.963	0.0867	-0.0732	0.0565
CATGCTG	0.00405	-0.0896	0.201	1.19	0.0571	1.15	0.158	-0.158	-0.0111
GACCGAG	0.0543	0.0641	0.777	1.74	0.0331	1.55	0.216	0.0993	0.205
TTTCTCG	-0.124	-0.0352	-0.755	-0.646	-0.11	-1.11	0.0926	-0.0398	-0.26
GTTCTGA	-0.0102	0.0358	0.166	0.867	-0.0444	1.76	0.0317	0.0529	0.00365
ACTGAAG	0.0873	0.158	-0.846	-0.303	-0.0316	-1.17	0.14	0.146	-0.0117
GCTCGGG	0.0201	-0.0924	-0.13	0.188	0.048	-0.38	0.0376	0.063	0.0375
ACCTAGA	-0.0483	-0.0137	-0.579	-0.39	-0.00483	-1.1	-0.0327	-0.0523	-0.196
CGTGAGT	0.115	0.0619	-0.054	-0.517	0.0795	-0.707	-0.059	0.077	0.0626
CACGCCC	-0.136	-0.178	-0.302	-0.343	-0.0663	-0.591	-0.179	-0.143	-0.138
AAGATAC	0.134	0.0405	-0.0537	-0.0505	0.18	-0.561	0.209	0.0431	0.0999
GCCGTTT	-0.0225	-0.162	0.201	-0.534	-0.0778	0.228	-0.178	-0.0698	-0.193
TGCTCTT	-2.09	-0.181	-0.0417	-1.94	0.0313	-0.0992	-2.79	-0.0835	-0.0561
ATCTACC	0.00783	-0.0742	-0.187	-1.81	-0.0339	-0.301	-0.478	-0.0186	0.0344
TGTCCTG	0.00242	-0.0358	-0.014	0.139	-0.0185	0.522	-0.0262	0.0761	-0.0702
CGTAGGA	0.174	0.0786	0.249	0.473	0.0897	-0.145	0.0533	0.09	0.141

Sequence	uncleaved DNA left (log2) [1]	uncleaved DNA left (log2) [2]	uncleaved DNA left (log2) [3]	uncleaved DNA left (log2) [4]	uncleaved DNA left (log2) [5]	uncleaved DNA left (log2) [6]	uncleaved DNA left (log2) [7]	uncleaved DNA left (log2) [8]	uncleaved DNA left (log2) [9]
CCACGTT	0.0557	-0.166	-0.88	-2.36	0.115	-0.826	-0.531	-0.0853	-0.801
TCCCAAG	0.00306	0.029	-0.712	-0.742	0.041	-1.34	0.136	0.165	-0.0658
CTTAAAG	-0.124	0.0603	-0.652	-0.494	-0.0351	-1.07	0.169	0.0398	-0.0928
CAATCCC	0.0215	-0.0497	-2.32	-2.65	-0.096	-0.403	-0.166	0.0587	-1.01
CGCCTGT	0.019	0.00361	0.0319	0.54	-0.0142	1.27	0.0255	0.0353	-0.00611
CGGTACA	0.204	0.00614	0.516	0.335	0.067	1.5	0.279	0.0888	0.225
TAGCATG	0.0011	-0.108	-0.0397	0.377	-0.0496	0.423	0.18	-0.283	-0.0512
CAGTAAC	0.067	0.0364	-0.265	-1.61	-0.166	-0.733	-2.07	-0.00047	-0.0674
TTACAGA	0.083	-0.029	-0.232	-1.8	-0.00981	-0.758	-0.0125	-0.0294	-0.0769
ACTGCCT	-0.0726	-0.0648	-0.0296	0.0268	0.0297	0.273	-0.114	-0.0769	-0.00763
CCTATCA	-0.0237	-0.0394	0.418	0.231	-0.0248	0.372	-0.0764	0.0517	0.165
TTGCCAC	-0.0381	-0.244	-0.432	-0.722	-0.0159	-0.858	-1.38	0.112	-0.0439
AATTCCT	-3.67	-3.31	-0.647	-3.06	-0.0153	-0.563	-4.04	-0.0911	-0.147
AGCGAAA	-0.0402	0.13	0.0579	0.559	0.0608	1.13	0.00312	-0.022	0.193
ACTTACT	-3.08	-1.33	-0.49	-2.75	0.0823	-0.741	-3.37	-0.0504	-0.0075
GAAATAA	0.0824	0.139	0.179	0.411	0.0784	0.702	0.118	0.112	0.128
CGGGCCT	0.071	0.01	0.575	1.02	0.0469	1.68	0.0861	-0.0524	-0.0883
AAGACTA	0.184	0.0358	0.115	0.242	-0.00525	1.33	0.0126	-0.0213	0.0574
CTCACGT	-0.117	-0.0607	-0.0682	-0.31	-0.0352	-0.342	-0.0832	-0.0729	-0.181
TTGTGAC	0.0979	0.138	0.0776	0.229	0.126	-0.509	0.175	0.21	0.115
